We go through 64 cell lines from the supplement of paper PMC4967469.

Compound in this assay: C=CC(=O)Nc1cccc(Nc2nc(NC3CCC(N(C)C)CC3)nc3c2ncn3C(C)C)c1 [WZ3105]
Description: Viability of human cancer cell lines after 72 h of drug (GDSC screen). Particulars: top dose inferred. How it is done:
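Human cancer cell lines in 384-well plates, medium with 10% serum, drug for 72 h over a 256-fold dose range (nine 2-fold or five 4-fold steps up to the top dose). Adherent lines were fixed and stained with the nucleic acid dye Syto60, suspension lines read with resazurin; signal relative to control wells, capped at 0 and 100%. One two-parameter sigmoid per drug and line, fitted in a mixed model over all curves with the slope shared within a line.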

Broadly, the IC50 is the concentration needed to halve the response being measured.

The IC50 comes from the fitted curve, where viability falls to half of the control; a fit beyond the top or the lowest dose is shown as a bound at that dose. AUC sums up the same curve from the lowest dose to the 256-fold higher top dose; the more sensitive the line, the further below 1. A top dose marked as inferred was derived from the fitted curves, not read from the paper.

Consider “KURAMOCHI (ovary, adherent, top dose 1.28 µM)”, for which the AUC was found to be 0.74 and the half-inhibitory concentration (IC50) is 441 nM.

Take “KY821 (leukaemia, suspension, top dose 1.28 µM)”: the AUC was found to be 0.852 and the IC50 is 798 nM.

Consider “KYAE-1 (oesophagus, suspension, top dose 1.28 µM)”, for which the AUC worked out at 0.769 and the concentration for half-maximal inhibition (IC50) was determined as 532 nM.

As to “KYM-1 (rhabdomyosarcoma, adherent, top dose 1.28 µM)”, the AUC amounted to 0.991 and the IC50 is over 1280 nM.

Regarding “KYSE-50 (oesophagus, adherent, top dose 1.28 µM)”, the AUC turned out to be 0.864 and the IC50 came to 964 nM.

“KYSE-70 (oesophagus, adherent, top dose 1.28 µM)”: the AUC was 0.915 and the concentration for half-maximal inhibition (IC50) was over 1280 nM.

Turning to “KYSE-140 (oesophagus, adherent, top dose 1.28 µM)”, the AUC amounted to 0.665 and the concentration for half-maximal inhibition (IC50) was determined as 245 nM.

As to “KYSE-150 (oesophagus, adherent, top dose 1.28 µM)”, the AUC amounted to 0.922 and the IC50 is over 1280 nM.

Consider “KYSE-180 (oesophagus, adherent, top dose 1.28 µM)”, for which the AUC stood at 0.894 and the half-maximal inhibitory concentration (IC50) was over 1280 nM.

For the cell line “KYSE-220 (oesophagus, adherent, top dose 1.28 µM)”, the AUC came to 0.736 and the IC50 amounted to 393 nM.

Turning to “KYSE-270 (oesophagus, adherent, top dose 1.28 µM)”, the AUC amounted to 0.921 and the IC50 is over 1280 nM.

“KYSE-410 (oesophagus, adherent, top dose 1.28 µM)”: the AUC amounted to 0.895 and the IC50 is over 1280 nM.

For the cell line “KYSE-450 (oesophagus, adherent, top dose 1.28 µM)”, the AUC was found to be 0.73 and the IC50 came to 345 nM.

“KYSE-510 (oesophagus, adherent, top dose 1.28 µM)”: the AUC worked out at 0.933 and the IC50 is over 1280 nM.

For “KYSE-520 (oesophagus, adherent, top dose 1.28 µM)”, the AUC came out at 0.853 and the concentration for half-maximal inhibition (IC50) is over 1280 nM.

“L-363 (myeloma, suspension, top dose 1.28 µM)”: the AUC was determined as 0.367 and the IC50 is 36.4 nM.

“L-428 (Hodgkin lymphoma, suspension, top dose 1.28 µM)”: the AUC is 0.986 and the half-maximal inhibitory concentration (IC50) is over 1280 nM.

Regarding “L-540 (Hodgkin lymphoma, suspension, top dose 1.28 µM)”, the AUC turned out to be 0.869 and the 50% inhibitory concentration (IC50) was 969 nM.

On to “L-1236 (Hodgkin lymphoma, suspension, top dose 1.28 µM)”, for which the AUC amounted to 0.745 and the concentration for half-maximal inhibition (IC50) was 351 nM.

With “LAMA-84 (chronic myeloid leukaemia, suspension, top dose 1.28 µM)”, the AUC amounted to 0.894 and the half-maximal inhibitory concentration (IC50) was over 1280 nM.

On to “LAN-6 (neuroblastoma, adherent, top dose 1.28 µM)”, for which the AUC was determined as 0.984 and the 50% inhibitory concentration (IC50) was over 1280 nM.

With “LB373-MEL-D (melanoma, adherent, top dose 1.28 µM)”, the AUC amounted to 0.888 and the IC50 was over 1280 nM.

For the cell line “LB771-HNC (head and neck, adherent, top dose 1.28 µM)”, the AUC was 0.858 and the IC50 is over 1280 nM.

“LB831-BLC (bladder, adherent, top dose 1.28 µM)”: the AUC turned out to be 0.882 and the 50% inhibitory concentration (IC50) was over 1280 nM.

Take “LB996-RCC (kidney, adherent, top dose 1.28 µM)”: the AUC was found to be 0.981 and the IC50 is over 1280 nM.

With “LB1047-RCC (kidney, adherent, top dose 1.28 µM)”, the AUC was 0.979 and the IC50 is over 1280 nM.

As to “LB2241-RCC (kidney, adherent, top dose 1.28 µM)”, the AUC is 0.984 and the IC50 is over 1280 nM.

As to “LB2518-MEL (melanoma, adherent, top dose 1.28 µM)”, the AUC turned out to be 0.968 and the IC50 is over 1280 nM.

As for “LC4-1 (lymphoblastic leukaemia, suspension, top dose 1.28 µM)”, the AUC was determined as 0.4 and the IC50 was 41.1 nM.

Take “LC-1-sq (lung squamous cell carcinoma, adherent, top dose 1.28 µM)”: the AUC is 0.743 and the IC50 stood at 454 nM.

In the case of “LC-2-ad (lung adenocarcinoma, adherent, top dose 1.28 µM)”, the AUC was determined as 0.687 and the IC50 worked out at 272 nM.

On to “LCLC-97TM1 (large cell lung carcinoma, adherent, top dose 1.28 µM)”, for which the AUC was 0.74 and the IC50 was determined as 419 nM.

“LCLC-103H (large cell lung carcinoma, adherent, top dose 1.28 µM)”: the AUC worked out at 0.71 and the half-inhibitory concentration (IC50) is 293 nM.

Turning to “LK-2 (lung squamous cell carcinoma, adherent, top dose 1.28 µM)”, the AUC was found to be 0.835 and the IC50 was determined as 772 nM.

Turning to “LN-18 (glioma, adherent, top dose 1.28 µM)”, the AUC is 0.993 and the 50% inhibitory concentration (IC50) was over 1280 nM.

Regarding “LN-229 (glioma, adherent, top dose 1.28 µM)”, the AUC worked out at 0.974 and the IC50 is over 1280 nM.

Turning to “LN-405 (glioma, adherent, top dose 1.28 µM)”, the AUC was 0.857 and the IC50 is over 1280 nM.

Turning to “LNCaP-Clone-FGC (prostate, adherent, top dose 1.28 µM)”, the AUC was found to be 0.701 and the IC50 is 322 nM.

For the cell line “LNZTA3WT4 (glioma, adherent, top dose 1.28 µM)”, the AUC stood at 0.986 and the 50% inhibitory concentration (IC50) is over 1280 nM.

Regarding “LOU-NH91 (lung squamous cell carcinoma, adherent, top dose 1.28 µM)”, the AUC is 0.968 and the IC50 is over 1280 nM.

Take “LOUCY (T-cell lymphoblastic leukaemia, suspension, top dose 10.24 µM)”: the AUC was 0.016 and the IC50 was under 40 nM.

Take “LOXIMVI (melanoma, semi-adherent, top dose 1.28 µM)”: the AUC stood at 0.732 and the IC50 was 335 nM.

For the cell line “LP-1 (myeloma, suspension, top dose 1.28 µM)”, the AUC was found to be 0.67 and the half-inhibitory concentration (IC50) came out at 216 nM.

As to “LS-123 (large intestine, adherent, top dose 1.28 µM)”, the AUC stood at 0.785 and the half-maximal inhibitory concentration (IC50) stood at 754 nM.

As to “LS-180 (large intestine, adherent, top dose 1.28 µM)”, the AUC worked out at 0.927 and the IC50 is over 1280 nM.

As to “LS-411N (large intestine, adherent, top dose 10.24 µM)”, the AUC was 0.427 and the IC50 amounted to 388 nM.

Consider “LS-513 (large intestine, adherent, top dose 10.24 µM)”, for which the AUC is 0.843 and the IC50 was determined as 7690 nM.

Regarding “LS-1034 (large intestine, adherent, top dose 1.28 µM)”, the AUC was 0.971 and the half-inhibitory concentration (IC50) was over 1280 nM.

Consider “LU-65 (large cell lung carcinoma, suspension, top dose 1.28 µM)”, for which the AUC is 0.782 and the IC50 worked out at 636 nM.

Turning to “LU-99A (large cell lung carcinoma, adherent, top dose 1.28 µM)”, the AUC was 0.951 and the half-maximal inhibitory concentration (IC50) was over 1280 nM.

As to “LU-134-A (small cell lung carcinoma, suspension, top dose 1.28 µM)”, the AUC stood at 0.735 and the IC50 worked out at 395 nM.

Turning to “LU-135 (small cell lung carcinoma, suspension, top dose 1.28 µM)”, the AUC came out at 0.588 and the concentration for half-maximal inhibition (IC50) came out at 133 nM.

Turning to “LU-139 (small cell lung carcinoma, suspension, top dose 1.28 µM)”, the AUC came out at 0.613 and the concentration for half-maximal inhibition (IC50) was found to be 178 nM.

On to “LU-165 (small cell lung carcinoma, suspension, top dose 1.28 µM)”, for which the AUC is 0.814 and the half-inhibitory concentration (IC50) amounted to 808 nM.

Take “LXF-289 (lung adenocarcinoma, adherent, top dose 1.28 µM)”: the AUC came to 0.828 and the 50% inhibitory concentration (IC50) amounted to 770 nM.

As for “LoVo (large intestine, adherent, top dose 1.28 µM)”, the AUC was found to be 0.943 and the IC50 was over 1280 nM.

Consider “M14 (melanoma, adherent, top dose 1.28 µM)”, for which the AUC amounted to 0.968 and the IC50 was over 1280 nM.

“M059J (glioma, adherent, top dose 1.28 µM)”: the AUC turned out to be 0.89 and the IC50 is over 1280 nM.

In the case of “MC116 (B-cell lymphoma, suspension, top dose 1.28 µM)”, the AUC was 0.652 and the IC50 stood at 186 nM.

With “MC-CAR (haematopoietic neoplasm, suspension, top dose 1.28 µM)”, the AUC is 0.865 and the 50% inhibitory concentration (IC50) is 933 nM.

Turning to “MC-IXC (neuroblastoma, adherent, top dose 1.28 µM)”, the AUC stood at 0.745 and the IC50 amounted to 317 nM.

On to “MCF7 (breast, adherent, top dose 1.28 µM)”, for which the AUC was determined as 0.98 and the 50% inhibitory concentration (IC50) was over 1280 nM.

With “MDA-MB-157 (breast, adherent, top dose 1.28 µM)”, the AUC stood at 0.78 and the concentration for half-maximal inhibition (IC50) turned out to be 542 nM.

Consider “MDA-MB-175-VII (breast, adherent, top dose 1.28 µM)”, for which the AUC was found to be 0.737 and the IC50 amounted to 412 nM.
